Reference: publication PMC6919601, “Identification of Plasmodium dipeptidyl aminopeptidase allosteric inhibitors by high throughput screening” (PLoS ONE, 2019)
The whole screen tested about 110,000 compounds, of which about 230 (0.21%) showed an effect of 50% or more. The list shows a part of the results.

molecular target: DPAP1 (Plasmodium falciparum, UniProt Q8IIJ9); experiment: primary screen, percent inhibition; read by cleavage of a fluorogenic dipeptide substrate; higher = more effect of the substance; set-up: species or system P. falciparum D10 trophozoite lysates; single well
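Also: 30 min substrate incubation versus DMSO and 10 µM JCP410 controls.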

Sequence of DPAP1 (Q8IIJ9 whole entry, looked up): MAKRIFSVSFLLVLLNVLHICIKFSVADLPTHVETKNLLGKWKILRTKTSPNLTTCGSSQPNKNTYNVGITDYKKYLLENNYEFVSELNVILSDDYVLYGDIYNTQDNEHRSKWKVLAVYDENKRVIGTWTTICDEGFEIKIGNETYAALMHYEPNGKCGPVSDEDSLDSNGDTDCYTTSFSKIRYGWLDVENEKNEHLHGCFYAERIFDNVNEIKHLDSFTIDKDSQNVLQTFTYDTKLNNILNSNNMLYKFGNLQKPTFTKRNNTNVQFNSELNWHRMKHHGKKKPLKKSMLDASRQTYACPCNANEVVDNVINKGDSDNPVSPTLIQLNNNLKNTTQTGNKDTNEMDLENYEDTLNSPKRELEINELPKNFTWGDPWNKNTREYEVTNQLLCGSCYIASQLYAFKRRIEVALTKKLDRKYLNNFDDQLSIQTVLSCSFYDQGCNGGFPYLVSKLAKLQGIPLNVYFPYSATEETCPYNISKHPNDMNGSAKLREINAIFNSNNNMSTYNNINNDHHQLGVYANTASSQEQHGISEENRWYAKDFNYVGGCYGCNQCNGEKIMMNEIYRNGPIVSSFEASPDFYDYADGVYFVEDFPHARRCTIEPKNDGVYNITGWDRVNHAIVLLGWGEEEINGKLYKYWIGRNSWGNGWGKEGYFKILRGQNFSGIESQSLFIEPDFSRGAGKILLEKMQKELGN

SMILES | % Inhibition @ 10 uM
COc1ccc(CNC(=O)C2CCN(S(=O)(=O)c3c[nH]cn3)CC2)cc1 | 1.23%
COc1ccc(C[C@H](NC(=O)OCc2ccccc2)C(=O)NCC#N)cc1 | -1.83%
COc1ccc(-c2noc(CNC(=O)COc3ccc(Br)c(C)c3)n2)cc1 | 3.74%
CCOC(=O)c1cnc2c(ccc3ccccc32)c1NCCOC(=O)c1cccs1 | 4.18%
COc1cc(/C=c2\sc3nc4ccccc4n3c2=O)c(Br)cc1OCC(=O)O | 13.5%
O=C(Nc1ccc(S(=O)(=O)N2CCCCC2)cc1)c1ccc(Br)o1 | 0.658%
Cc1nc2c(-c3ccccc3)c(C)nn2c(C)c1CC(=O)NCCN1CCOCC1 | 0.953%
Cc1nc2c(C(=O)NCCN3CCOCC3)cnn2c(C)c1Cc1ccccc1Cl | -0.406%
Cn1nnnc1SCCCNCc1ccc(-c2ccccc2)o1 | 5.39%
CCC(C)NC(=O)c1cnn2c(C(F)F)cc(-c3ccc(C)cc3)nc12 (stereo not shown) | -6.75%
COc1cccc2c1OC1=C(C(=O)CC(C)(C)C1)C2CC(=O)c1ccc(F)cc1 (stereo not shown) | -0.143%
COc1ccc(CNC(=O)C2CC(=O)N(C3CCCC3)C2)cc1 (stereo not shown) | 2.18%
CCOc1ccccc1NC(=O)c1ccc(-c2ccccc2)cc1 | -4.72%
COc1ccc(NS(=O)(=O)c2ccc(Br)cc2)c(OC)c1 | -12.5%
O=C(O)c1cccc(N2C(=O)c3cccc([N+](=O)[O-])c3C2=O)c1 | 0.00784%
O=C(Nc1ccccc1Oc1ccccc1)c1cnccn1 | 0.163%
CCCCNC(=O)Cn1c(SCc2cccc(C)c2)nc2ccncc21 | 5.73%
Nc1nnc(SCc2cc(=O)n3ccsc3n2)s1 | -0.495%
Oc1nc(S)nc2c1CN(Cc1ccc(F)cc1)CC2 | 2.97%
COc1ccc2cc(-c3csc(NC(=O)CCC(=O)NCCN4CCCCC4C)n3)c(=O)oc2c1 (stereo not shown) | 4.49%
O=c1ccc2nncn2[nH]1 | -2.83%
O=C(c1ccco1)N1CCN(C(=O)C(Cc2ccccc2)N2Cc3ccccc3C2=O)CC1 (stereo not shown) | 3.37%
CCOc1ccccc1NC(=O)C1=C(C)NC(=O)NC1c1ccccc1C (stereo not shown) | 0.475%
Cc1cc(Br)ccc1OCC(=O)NCC(C)C | 4.75%
Cc1[nH]c2ccc(C(=O)NCCCN3CCCC3=O)cc2c1C | -3.2%
CCSc1nc(=O)c2c(n1C)NC(=O)CC2c1cccc(F)c1F (stereo not shown) | 2.25%
O=S(=O)(c1cccc(S(=O)(=O)N(CCO)CCO)c1)c1ccc(Cl)c(Cl)c1 | 7.47%
CC(=O)OCCn1ccc(=O)[nH]c1=O | 1.13%
